Publication PMC4336329 (PLoS ONE, 2015)
Screen size: about 310,000 compounds; about 2,200 (0.71%) showed an effect of 50% or more. The effect is printed as a negative number. The list shows a part of the results.

These molecules were tested against human ether-à-go-go-related gene (hERG) potassium channel (human, UniProt Q12809) (assay: primary screen, population patch clamp on CHO cells stably expressing hERG).
human ether-à-go-go-related gene (hERG) potassium channel, sequence (Q12809 whole entry, looked up): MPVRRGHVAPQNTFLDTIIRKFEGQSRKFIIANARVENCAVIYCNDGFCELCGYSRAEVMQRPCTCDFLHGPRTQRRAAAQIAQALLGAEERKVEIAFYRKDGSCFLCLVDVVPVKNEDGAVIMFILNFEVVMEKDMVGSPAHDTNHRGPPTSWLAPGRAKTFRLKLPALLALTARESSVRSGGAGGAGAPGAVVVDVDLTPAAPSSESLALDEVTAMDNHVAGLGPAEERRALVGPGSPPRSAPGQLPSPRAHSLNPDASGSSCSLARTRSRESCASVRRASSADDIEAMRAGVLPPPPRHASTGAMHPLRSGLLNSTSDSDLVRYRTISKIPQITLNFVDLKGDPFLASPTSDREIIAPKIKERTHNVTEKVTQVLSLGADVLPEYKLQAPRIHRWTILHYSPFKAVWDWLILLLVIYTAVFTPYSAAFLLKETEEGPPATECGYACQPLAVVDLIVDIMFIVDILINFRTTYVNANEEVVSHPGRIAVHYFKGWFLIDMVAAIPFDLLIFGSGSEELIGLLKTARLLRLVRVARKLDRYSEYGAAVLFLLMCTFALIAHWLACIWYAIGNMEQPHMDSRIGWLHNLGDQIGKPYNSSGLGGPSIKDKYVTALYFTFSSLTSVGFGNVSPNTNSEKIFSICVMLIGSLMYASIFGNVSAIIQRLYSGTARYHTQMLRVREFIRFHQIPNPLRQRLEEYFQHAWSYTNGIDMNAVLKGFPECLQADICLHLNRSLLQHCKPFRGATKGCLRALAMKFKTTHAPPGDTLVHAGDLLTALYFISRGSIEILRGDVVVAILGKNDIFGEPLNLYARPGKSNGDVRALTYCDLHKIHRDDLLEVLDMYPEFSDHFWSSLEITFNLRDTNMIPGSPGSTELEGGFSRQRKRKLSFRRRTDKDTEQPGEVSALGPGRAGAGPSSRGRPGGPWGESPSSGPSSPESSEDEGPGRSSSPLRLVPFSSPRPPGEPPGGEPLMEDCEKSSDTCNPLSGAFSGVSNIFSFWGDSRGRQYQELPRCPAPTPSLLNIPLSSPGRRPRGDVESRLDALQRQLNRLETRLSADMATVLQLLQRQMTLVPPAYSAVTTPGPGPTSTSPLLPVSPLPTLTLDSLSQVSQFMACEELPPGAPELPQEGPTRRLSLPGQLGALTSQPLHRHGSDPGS

Compared with c1ccc(-c2csc(Nc3cccnc3)n2)nc1, Clc1ccc(NCc2nncn2-c2ccccc2)cc1 is higher in “hERG current change (%, negative = inhibition) at 1uM” value: -7.89% for the first, 4.07% for the second.

First: CCN(CC)S(=O)(=O)c1cccc(-c2nnc(SCC(=O)NCCC3=CCCCC3)n2N)c1
Second: Cc1ccc(S(=O)(=O)NCCC(=O)NCC(c2ccco2)N2CCCCC2)cc1C (centres unmarked)
The “hERG current change (%, negative = inhibition) at 1uM” value of the first is higher: -1.1% for the first, -11.7% for the second.

Compared with N#Cc1ccc(COC(=O)C2CCC(=O)N2)cc1 (centres unmarked), CCOC(=O)/C(C#N)=C/c1ccc(SC)cc1 is higher in “hERG current change (%, negative = inhibition) at 1uM” value: 13.1% for the first, 16.4% for the second.

First: O=C(Nc1ccc2[nH]c(=O)[nH]c2c1)C(F)(F)F
Second: Cc1cccc(N/C(=N\S(=O)(=O)c2ccccc2)C(F)(F)F)c1
The “hERG current change (%, negative = inhibition) at 1uM” value of the first is lower: 3.72% for the first, 8.5% for the second.

First: O=C(O)c1ccc2c(=O)n(Cc3ccccc3)c(SCc3ccc([N+](=O)[O-])cc3)nc2c1
Second: O=C(O)c1ccc2c(c1)N(Cc1ccc(F)cc1)C(=O)c1ccccc1S2
The “hERG current change (%, negative = inhibition) at 1uM” value of the first is higher: 13.9% for the first, 1.39% for the second.

First: C/C(=N\N1CCN(c2ccc(Cl)cc2)CC1)c1cccs1
Second: Cc1cccc(OCc2nnc(SCC(=O)N3CCN(c4ccccc4)CC3)o2)c1C
The “hERG current change (%, negative = inhibition) at 1uM” value of the first is higher: 4.52% for the first, -2.88% for the second.

Compared with CC(=O)c1ccc(Nc2nc3ccc(C)cc3n3cnnc23)cc1, Cc1ccc(-c2nc3ccc(C(=O)O)cc3nc2-c2ccc(C)cc2)cc1 is lower in “hERG current change (%, negative = inhibition) at 1uM” value: 12.1% for the first, 11.6% for the second.

First: O=C(NCCC(=O)N1CCc2ccccc21)c1ccccc1Cl
Second: CC(OC(=O)/C=C/c1ccc2ccccc2n1)C(=O)NCc1ccccc1 (centres unmarked)
The “hERG current change (%, negative = inhibition) at 1uM” value of the first is lower: 8.68% for the first, 18.5% for the second.

Compared with FC(F)(F)c1cccc(NC2=NCCCS2)c1, COc1ccc(CNc2cccc3[nH]c(C(F)(F)F)nc23)cc1OC.Cl is lower in “hERG current change (%, negative = inhibition) at 1uM” value: 12.5% for the first, 11.4% for the second.

Compared with COc1cc(/C=C2/C(=O)NN(c3ccc(C)c(Cl)c3)C2=O)cc([N+](=O)[O-])c1O, CCNS(=O)(=O)c1ccc2nc(NC(=O)/C=C/c3cc(OC)c(OC)c(OC)c3)sc2c1 is lower in “hERG current change (%, negative = inhibition) at 1uM” value: 14.7% for the first, 2.49% for the second.

Going from CCN(CC)c1ccc(/C=N/NC(=O)c2cccc(S(=O)(=O)Nc3ccccc3OC)c2)cc1 to O=C(O)c1ccc(CNS(=O)(=O)c2ccc3ccccc3c2)cc1, the “hERG current change (%, negative = inhibition) at 1uM” value rises from 5.56% to 13.4%.

Going from CC1C(=O)Nc2ccccc2N1C(=O)c1ccc(O)cc1 (centres unmarked) to Cc1ccc(S(=O)(=O)NN2C(=O)c3ccccc3NC2c2ccccc2O)cc1 (centres unmarked), the “hERG current change (%, negative = inhibition) at 1uM” value falls from 12.6% to 11.2%.

First: COCCN(CCOC)C(=O)c1ccc(SCc2ccc(C)cc2)c([N+](=O)[O-])c1
Second: COc1ccc(CNC(=O)CCS(=O)(=O)c2ccc3c(c2)oc(=O)n3C)cc1
The “hERG current change (%, negative = inhibition) at 1uM” value of the first is lower: -12.3% for the first, 16.9% for the second.

First: C=CCNC(=O)CN(Cc1ccccc1)S(=O)(=O)c1ccccc1
Second: O=C(O)CCCNS(=O)(=O)c1ccc(F)cc1
The “hERG current change (%, negative = inhibition) at 1uM” value of the first is lower: 6.97% for the first, 19% for the second.

Compared with Cc1ccc(-n2c(-c3ccccc3)c[nH]c2=S)cc1, COc1ccc(OC)c(NC(=O)c2ccc3nc(-c4ccccc4)c(-c4ccccc4)nc3c2)c1 is higher in “hERG current change (%, negative = inhibition) at 1uM” value: 0.0755% for the first, 26.2% for the second.

Compared with CCOC(=O)C1CCCN(C(=O)c2cc3cc(F)ccc3[nH]2)C1 (centres unmarked), CCOC(=O)C1CCN(CCCSc2ccc(Cl)cc2)CC1.Cl is lower in “hERG current change (%, negative = inhibition) at 1uM” value: 13.1% for the first, -48% for the second.

First: CCOC(=O)C1=C(C)NC(C)=C(C(=O)OCC)C1C(=O)OCC(=O)N1CC(C)OC(C)C1 (centres unmarked)
Second: CCOC(=O)c1c(C)oc2cc(Br)c(O)c(Br)c12
The “hERG current change (%, negative = inhibition) at 1uM” value of the first is higher: 12.2% for the first, 10% for the second.

First: O=C(Nc1ccc(Cl)cc1N1CCOCC1)C1CCCCC1
Second: Cc1oc(-c2ccccc2F)nc1CS(=O)CC(=O)NC1CCCCC1 (centres unmarked)
The “hERG current change (%, negative = inhibition) at 1uM” value of the first is lower: 12% for the first, 18.4% for the second.

Compared with CC(C)(C)OC(=O)NNC(=S)NC1CCCCC1, Cn1cc(Cl)c(C(=O)NNC(=S)NCc2ccco2)n1 is lower in “hERG current change (%, negative = inhibition) at 1uM” value: 14.4% for the first, 5.73% for the second.

Going from C/C(N)=C(/C#N)C(=O)CSc1nc2ccccc2c(=O)n1CCCOC(C)C to CCCC1CCC(C(=O)Nn2c(C)nc3ccccc3c2=O)CC1 (centres unmarked), the “hERG current change (%, negative = inhibition) at 1uM” value falls from 1.6% to -12%.

First: CCOC(=O)C(O)(c1ccc(N(CC)S(=O)(=O)c2ccc(C)cc2)cc1)C(F)(F)F (centres unmarked)
Second: CCOC(=O)Cc1csc(NC(=O)COc2ccc3ccccc3c2)n1
The “hERG current change (%, negative = inhibition) at 1uM” value of the first is higher: -2.53% for the first, -31.3% for the second.

Compared with CCCn1nnnc1SCC(=O)Nc1ccc(F)cc1, Cc1c(/C=N\NC(=O)c2ccc(F)cc2)cnn1C is higher in “hERG current change (%, negative = inhibition) at 1uM” value: 5.61% for the first, 11.9% for the second.

Going from CC(/C=C/c1ccco1)=N\NC(=O)c1cccnc1 to O=C(N/N=C\c1cc(Br)c(Br)o1)c1cncc(Br)c1, the “hERG current change (%, negative = inhibition) at 1uM” value falls from 15% to 8.58%.

Compared with O=C(NC12CC3CC(CC(C3)C1)C2)c1cnccn1, O=C(O)CC1(c2ccc(F)cc2)C2CC3CC(C2)CC1C3 (centres unmarked) is higher in “hERG current change (%, negative = inhibition) at 1uM” value: 12.1% for the first, 20.7% for the second.

First: O=C(O)C1CCC(Cn2c(SCc3cc(=O)n4cc(Cl)ccc4n3)nc3ccsc3c2=O)CC1 (centres unmarked)
Second: Cc1ccc(-c2nn3c(C)nnc3c3ccccc23)cc1S(=O)(=O)N1CCN(CCO)CC1
The “hERG current change (%, negative = inhibition) at 1uM” value of the first is higher: -1.61% for the first, -27.3% for the second.

Compared with O=C(N/N=C\c1ccc(COc2ccc([N+](=O)[O-])cc2)o1)c1ccc(Cl)cc1, COc1ccccc1CN1C(=O)[C@H]2Cc3c([nH]c4ccccc34)C(C)(C)N2C1=O is higher in “hERG current change (%, negative = inhibition) at 1uM” value: -10.8% for the first, 12.9% for the second.

Going from CN(C)c1cc[n+](CC(O)C[n+]2ccc(N(C)C)cc2)cc1.[O-][Cl+3]([O-])([O-])[O-] to COc1cccc(-c2sc3ccc(OC)cc3c2C#CCC(C)O)c1 (centres unmarked), the “hERG current change (%, negative = inhibition) at 1uM” value falls from 17.2% to 13.8%.

Going from Cn1c2ccc(F)cc2c2ncn(Cc3ccco3)c(=O)c21 to Cn1nc(C(=O)N2CCN(c3ccccc3)CC2)c2c1-c1ccccc1S(=O)(=O)C2, the “hERG current change (%, negative = inhibition) at 1uM” value rises from -6.12% to 7.28%.
